Reference: the supplement of paper PMC12217912
The other results are listed elsewhere or left out. The full chains were built here from the parent and the listed change. Inactive controls read about 0.05.

B1: TEV protease; numbered along this chain (parent)
chain: MGESLFKGPRDYNPISSSICHLTNESDGHTTSLYGIGFGPFIITNKHLFRRNNGTLVVQSLHGVFKVKDTTTLQQHLVDGRDMIIIRMPKDFPPFPQKLKFREPQREERICLVTTNFQTKSMSSMVSDTSCTFPSGDGIFWKHWIQTKDGQCGSPLVSTRDGFIVGIHSASNFTNTNNYFTSVPKNFMELLTNQEAQQWVSGWRLNADSVLWGGHKVFMVKPEEPFQPVKEATQL

Variants of: B1
Assay: raw area under fraction-flipped curve 0-4 h after induction (AUC4h, not background-subtracted), DNA-recorder readout of cleavage of the substrate (dimensionless); higher = more cleavage of the substrate by the protease variant
Details: temperature: 34 °C; time window: 0-4 h after rhamnose induction
Description: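 In vivo DNA recorder in E. coli TOP10(DE3) ΔrhaA at 34 °C. Each TEVp single-site mutant (parent TEVp 0) is paired with a single-site variant of the 7-mer TEVs (canonical ENLYFQ|S). The substrate sits between flexible linkers in a Bxb1-sfGFP-TEVs-SsrA fusion, so cleavage stabilises Bxb1 and speeds flipping of a recombination array, read by NGS. The value is the raw area under the fraction-flipped curve over 0-4 h after rhamnose induction (AUC4h), with ≥20 reads per time point. It is not background-subtracted; inactive controls average about 0.047.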
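Further: Bxb1 expression induced with 0.2% (w/v) L-rhamnose at OD600 near 0.5, cultures sampled hourly, flipped fraction per protease–substrate barcode pair counted by paired-end Illumina sequencing.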

Row | Variant | area with substrate ENLYFCS | area with substrate ENLYFDS | area with substrate ENLYFES | area with substrate ENLYFFS | area with substrate ENLYFHS | area with substrate ENLYFIS | area with substrate ENLYFKS | area with substrate ENLYFMS | area with substrate ENLYFNS | area with substrate ENLYFPS | area with substrate ENLYFSS | area with substrate ENLYFTS | area with substrate ENLYFVS | area with substrate ENLYFWS | area with substrate ENLYFLS | area with substrate ENLYFYS | area with substrate ENLYFRS | area with substrate ENLYFGS
1 | Q75Y | 0.0416 | 0.0581 | 0.0538 | 0.0726 | 0.0631 | 0.054 | 0.0617 | 0.0671 | 0.0609 | 0.0613 | 0.0504 | 0.0603 | 0.0857 | 0.0088 |  |  |  | 
2 | P89K | 0.033 |  | 0.0758 |  |  | 0.0557 |  | 0.0577 | 0.0604 | 0.0791 | 0.0532 |  | 0.0554 |  |  |  |  | 
3 | P94C | 0.042 |  |  | 0.0646 |  | 0.0508 | 0.0596 | 0.0905 |  |  |  | 0.0749 | 0.0492 |  |  |  |  | 
4 | F6L | 0.0561 | 0.0604 |  |  | 0.0807 | 0.064 |  | 0.063 | 0.0645 | 0.0415 |  |  |  | 0.0598 | 0.0684 | 0.0667 |  | 
5 | E231K | 0.0572 |  | 0.0666 |  | 0.0772 | 0.0584 |  | 0.0584 |  | 0.0622 |  |  |  |  |  |  | 0.0785 | 
6 | S123L | 0.0568 |  | 0.0597 |  |  | 0.05 |  | 0.0658 | 0.0715 | 0.0531 |  | 0.0662 |  | 0.0404 |  | 0.0511 |  | 
7 | G153H | 0.0242 | 0.055 | 0.0434 | 0.0567 | 0.0548 | 0.0394 | 0.0661 | 0.0303 | 0.0503 | 0.0454 | 0.0433 | 0.0419 |  | 0.0479 | 0.0512 | 0.0615 |  | 0.051
8 | R87E | 0.061 |  |  |  |  | 0.0569 |  | 0.0635 | 0.0752 |  |  | 0.0576 |  |  | 0.0649 | 0.0532 | 0.0917 | 0.0633
9 | D149A | 0.0625 |  |  | 0.0633 | 0.046 | 0.0299 | 0.0602 | 0.0662 | 0.0679 | 0.0577 | 0.0651 | 0.0632 | 0.0673 | 0.044 | 0.0716 | 0.0627 |  | 0.0501
10 | R51D | 0.0495 | 0.0401 | 0.0707 | 0.0761 |  | 0.0635 |  |  |  | 0.0586 |  |  | 0.0501 | 0.0556 | 0.0496 |  |  | 
11 | E189Q | 0.0633 | 0.0064 |  | 0.0678 | 0.065 | 0.0542 | 0.0588 | 0.0731 |  | 0.061 | 0.0991 | 0.0661 |  | 0.0865 |  |  | 0.0647 | 0.0594
12 | K98H | 0.0784 | 0.0526 |  | 0.0695 | 0.0627 | 0.0518 | 0.0712 | 0.0743 |  | 0.054 |  | 0.0569 |  |  | 0.053 | 0.063 | 0.0662 | 0.0648
13 | L73A | 0.0557 | 0.0428 |  |  | 0.0513 |  |  |  |  | 0.0472 | 0.0613 | 0.0552 |  |  |  | 0.0519 | 0.059 | 
14 | G214H | 0.0435 |  |  |  |  |  |  |  |  | 0.0344 |  |  |  | 0.0571 |  |  |  | 
15 | G138E | 0.0405 |  |  |  |  |  |  |  | 0.0655 | 0.0529 |  |  |  |  |  |  |  | 
16 | G166Y | 0.0511 |  |  | 0.0602 |  | 0.0541 | 0.0603 | 0.0406 | 0.0527 |  |  | 0.0526 | 0.0404 | 0.0292 | 0.0557 |  | 0.0671 | 

Row | Variant | area with substrate ENLYFCS | area with substrate ENLYFDS | area with substrate ENLYFES | area with substrate ENLYFFS | area with substrate ENLYFHS | area with substrate ENLYFIS | area with substrate ENLYFKS | area with substrate ENLYFMS | area with substrate ENLYFNS | area with substrate ENLYFPS | area with substrate ENLYFSS | area with substrate ENLYFTS | area with substrate ENLYFVS | area with substrate ENLYFWS | area with substrate ENLYFLS | area with substrate ENLYFYS | area with substrate ENLYFRS | area with substrate ENLYFGS
17 | F117T | 0.0938 | 0.0554 |  | 0.0795 |  | 0.0737 |  | 0.0646 |  | 0.0532 | 0.0273 |  | 0.0514 |  |  |  | 0.102 | 
18 | Q75G | 0.0337 |  | 0.0669 |  |  | 0.0591 | 0.0633 | 0.0663 | 0.0605 | 0.0597 | 0.0617 | 0.0551 |  | 0.0531 |  |  |  | 
19 | R109D | 0.0655 | 0.0678 | 0.0648 | 0.0628 |  | 0.0676 |  | 0.0514 | 0.0579 |  |  |  | 0.0567 |  |  | 0.0577 |  | 
20 | V220K | 0.0549 | 0.0544 | 0.0607 | 0.08 | 0.0679 | 0.0506 | 0.0641 | 0.0663 |  | 0.0587 |  | 0.0657 | 0.049 |  | 0.0717 |  |  | 
21 | P228T | 0.0553 |  | 0.0883 |  |  |  |  | 0.0695 | 0.0597 | 0.0717 | 0.0503 |  |  | 0.053 | 0.0634 | 0.0498 |  | 
22 | L190K | 0.0594 | 0.0435 | 0.0831 | 0.0755 |  | 0.0544 | 0.0581 | 0.0633 | 0.0565 |  | 0.054 | 0.0576 |  |  | 0.0477 | 0.0536 |  | 0.0476
23 | T114S | 0.0698 | 0.0597 |  | 0.066 | 0.0596 | 0.0649 |  | 0.0636 | 0.0654 | 0.0529 | 0.0521 | 0.0458 |  | 0.0575 |  |  | 0.0641 | 0.068
24 | F187V | 0.0644 | 0.041 |  |  | 0.0642 |  |  | 0.0326 |  | 0.0579 | 0.041 | 0.068 |  |  |  |  | 0.0501 | 
25 | D27I | 0.059 |  | 0.0468 | 0.0757 | 0.0607 | 0.0548 | 0.0578 | 0.0628 |  | 0.0576 | 0.0541 | 0.0679 | 0.0598 |  |  | 0.0569 |  | 0.0584
26 | G153D | 0.0525 | 0.0499 |  | 0.0501 | 0.0423 | 0.0296 | 0.106 | 0.0458 |  | 0.0459 |  | 0.0341 |  |  | 0.0595 | 0.0617 |  | 
27 | V57F | 0.0646 |  |  | 0.0652 | 0.0586 | 0.0546 | 0.0555 | 0.0719 | 0.0596 | 0.0523 | 0.052 | 0.0809 |  | 0.0517 | 0.0128 | 0.0559 | 0.0634 | 0.0399
28 | F101P | 0.0594 |  | 0.0522 | 0.0623 | 0.0529 | 0.0503 | 0.0472 | 0.0544 | 0.0596 | 0.0504 | 0.0504 | 0.054 | 0.0612 | 0.0477 | 0.0579 |  | 0.0639 | 0.0442
29 | F92M | 0.0556 |  |  | 0.0819 | 0.0644 |  |  | 0.104 |  | 0.0625 |  |  | 0.0541 |  |  |  | 0.104 | 
30 | F133S | 0.0579 |  | 0.0623 | 0.0731 |  | 0.0633 | 0.0579 | 0.0573 | 0.0644 | 0.0641 |  | 0.0795 | 0.0702 | 0.0568 | 0.0642 | 0.0647 | 0.0775 | 0.0691
31 | N193H | 0.0553 | 0.0701 | 0.0572 | 0.0671 | 0.0615 | 0.0636 |  | 0.0935 |  |  | 0.0712 | 0.0653 | 0.0439 |  |  |  |  | 0.06
32 | E195Q | 0.0654 |  | 0.0616 |  | 0.0678 | 0.0583 |  |  |  | 0.0633 |  |  |  | 0.0589 |  |  |  | 
